# The other results are listed elsewhere or left out. Single values are uncertain, as repeats are few or missing.
# Test system: 501Mel
# Experiment: cell count relative to DMSO control; melanoma cells; higher = more viable cells
# Details: library dose: standard library concentration; 72 h
# 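Also: cells treated in 1,536-well plates, then fixed and DAPI-stained, with nuclei counted from automated high-throughput microscope images.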
row,SMILES,cell count
1,"C[C@]12O[C@H](C[C@]1(O)CO)n1c3ccccc3c3c4c(c5c6ccccc6n2c5c31)CNC4=O [Lestaurtinib] + COc1ccc(-c2ccc3c(N4CCOCC4)nc(N4C[C@@H](C)O[C@@H](C)C4)nc3n2)cc1CO [KU0063794] (first compound 0.02 µM, partner dose 0.1 µM)",54.8%
2,"C[C@]12O[C@H](C[C@]1(O)CO)n1c3ccccc3c3c4c(c5c6ccccc6n2c5c31)CNC4=O [Lestaurtinib] + C/C(O)=C(\C#N)C(=O)Nc1cc(Br)ccc1Br [LFM-A13] (first compound 0.02 µM, partner dose 10 µM)",76.5%
3,"Cn1cc(C2=C(c3cn(C4CCN(Cc5ccccn5)CC4)c4ccccc34)C(=O)NC2=O)c2ccccc21 [Enzastaurin] + COc1cc(N2CCC(N3CCN(C)CC3)CC2)ccc1Nc1ncc(Cl)c(Nc2ccccc2S(=O)(=O)C(C)C)n1 [NVP-TAE684] (first compound 4 µM, partner dose 0.4 µM)",88.4%
4,"Cn1cc(C2=C(c3cn(C4CCN(Cc5ccccn5)CC4)c4ccccc34)C(=O)NC2=O)c2ccccc21 [Enzastaurin] + c1cc(-c2cnn3cc(-c4ccc(OCCN5CCCCC5)cc4)cnc23)ccn1 [Dorsomorphin] (first compound 4 µM, partner dose 2 µM)",47.4%
5,"C[As](C)SC[C@H](NC(=O)CC[C@H](N)C(=O)O)C(=O)NCC(=O)O [Darinaparsin] + Cc1cc([N+](=O)[O-])ccc1NS(=O)(=O)c1cc(Cl)ccc1Cl [FH535] (first compound 2 µM, partner dose 5 µM)",65.5%
6,"Cn1cc(C2=C(c3cn(C4CCN(Cc5ccccn5)CC4)c4ccccc34)C(=O)NC2=O)c2ccccc21 [Enzastaurin] + COc1ccc(-c2ccc3c(N4CCOCC4)nc(N4C[C@@H](C)O[C@@H](C)C4)nc3n2)cc1CO [KU0063794] (first compound 4 µM, partner dose 0.1 µM)",86.3%
7,"C[C@]12O[C@H](C[C@]1(O)CO)n1c3ccccc3c3c4c(c5c6ccccc6n2c5c31)CNC4=O [Lestaurtinib] + Cn1cc(/C=C2\C(=O)Nc3cccnc32)c2ccccc21 [GW441756] (first compound 0.02 µM, partner dose 2 µM)",61.4%
8,"C[C@]12O[C@H](C[C@]1(O)CO)n1c3ccccc3c3c4c(c5c6ccccc6n2c5c31)CNC4=O [Lestaurtinib] + O=C1NC(=O)/C(=C/c2ccc(-c3ccc(F)cc3O)o2)S1 [AS252424] (first compound 0.02 µM, partner dose 5 µM)",54.4%
9,"C[As](C)SC[C@H](NC(=O)CC[C@H](N)C(=O)O)C(=O)NCC(=O)O [Darinaparsin] + Cc1cc(SCc2sc(-c3ccc(C(F)(F)F)c(F)c3)nc2C)ccc1OCC(=O)O [GW0742] (first compound 2 µM, partner dose 10 µM)",98.7%
10,"Cn1cc(C2=C(c3cn(C4CCN(Cc5ccccn5)CC4)c4ccccc34)C(=O)NC2=O)c2ccccc21 [Enzastaurin] + O=C(O)C(=O)Nc1sc2c(c1C(=O)O)CCNC2 [TCS401] (first compound 4 µM, partner dose 8.33333 µM)",78.9%

# Test system: A101D
# Experiment: as above
# Details: library dose: standard library concentration; 72 h
row,SMILES,cell count
1,"C[C@]12O[C@H](C[C@]1(O)CO)n1c3ccccc3c3c4c(c5c6ccccc6n2c5c31)CNC4=O [Lestaurtinib] + COc1ccc(-c2ccc3c(N4CCOCC4)nc(N4C[C@@H](C)O[C@@H](C)C4)nc3n2)cc1CO [KU0063794] (first compound 0.02 µM, partner dose 0.1 µM)",73.8%
2,"C[C@]12O[C@H](C[C@]1(O)CO)n1c3ccccc3c3c4c(c5c6ccccc6n2c5c31)CNC4=O [Lestaurtinib] + C/C(O)=C(\C#N)C(=O)Nc1cc(Br)ccc1Br [LFM-A13] (first compound 0.02 µM, partner dose 10 µM)",67.9%
3,"Cn1cc(C2=C(c3cn(C4CCN(Cc5ccccn5)CC4)c4ccccc34)C(=O)NC2=O)c2ccccc21 [Enzastaurin] + O=C(O)[C@@H]1[O][Sb](=[O])([O][Sb]2(=[O])[O][C@H]([C@H](O)CO)[C@H](O)[C@H](C(=O)O)[O]2)[O][C@H]([C@H](O)CO)[C@@H]1O [stibogluconate] (first compound 4 µM, partner dose 10 µM)",81.4%
4,"N.N.[Cl][Pt][Cl] [cisplatin] + Nc1cccc2c1CN(C1CCC(=O)NC1=O)C2=O [lenalidomide] (first compound 8 µM, partner dose 5 µM)",97%
5,"Cn1cc(C2=C(c3cn(C4CCN(Cc5ccccn5)CC4)c4ccccc34)C(=O)NC2=O)c2ccccc21 [Enzastaurin] + Nc1ncn([C@H]2C[C@H](O)[C@@H](CO)O2)c(=O)n1 [decitabine] (first compound 4 µM, partner dose 0.5 µM)",30%
6,"Cn1cc(C2=C(c3cn(C4CCN(Cc5ccccn5)CC4)c4ccccc34)C(=O)NC2=O)c2ccccc21 [Enzastaurin] + COc1cc(N2CCC(N3CCN(C)CC3)CC2)ccc1Nc1ncc(Cl)c(Nc2ccccc2S(=O)(=O)C(C)C)n1 [NVP-TAE684] (first compound 4 µM, partner dose 0.4 µM)",84.2%
7,"Cn1cc(C2=C(c3cn(C4CCN(Cc5ccccn5)CC4)c4ccccc34)C(=O)NC2=O)c2ccccc21 [Enzastaurin] + NCC(=O)Nc1ccc(-n2nc(C(F)(F)F)cc2-c2ccc3c(ccc4ccccc43)c2)cc1 [OSU03012] (first compound 4 µM, partner dose 5 µM)",80.8%
8,"C[C@]12O[C@H](C[C@]1(O)CO)n1c3ccccc3c3c4c(c5c6ccccc6n2c5c31)CNC4=O [Lestaurtinib] + C[C@]1(c2nc3c(C(N)=O)cccc3[nH]2)CCCN1 [Veliparib] (first compound 0.02 µM, partner dose 7 µM)",69.5%
9,"Cn1cc(C2=C(c3cn(C4CCN(Cc5ccccn5)CC4)c4ccccc34)C(=O)NC2=O)c2ccccc21 [Enzastaurin] + c1cc(-c2cnn3cc(-c4ccc(OCCN5CCCCC5)cc4)cnc23)ccn1 [Dorsomorphin] (first compound 4 µM, partner dose 2 µM)",39.6%
10,"Cn1cc(C2=C(c3cn(C4CCN(Cc5ccccn5)CC4)c4ccccc34)C(=O)NC2=O)c2ccccc21 [Enzastaurin] + COc1ccc(Cl)c(Nc2nc3ccccc3nc2NS(=O)(=O)c2cccc(NC(=O)C(C)(C)N)c2)c1 [XL147] (first compound 4 µM, partner dose 4 µM)",66%
11,"C[As](C)SC[C@H](NC(=O)CC[C@H](N)C(=O)O)C(=O)NCC(=O)O [Darinaparsin] + C[C@@H]1CCN(C(=O)CC#N)C[C@@H]1N(C)c1ncnc2[nH]ccc12 [CP690550] (first compound 2 µM, partner dose 5 µM)",126%
12,"N.N.[Cl][Pt][Cl] [cisplatin] + CN(C)S(=O)(=O)c1ccc2c(c1)/C(=C/c1cc3c([nH]1)CCCC3)C(=O)N2 [SU6656] (first compound 8 µM, partner dose 2 µM)",72.7%
13,"C[As](C)SC[C@H](NC(=O)CC[C@H](N)C(=O)O)C(=O)NCC(=O)O [Darinaparsin] + NCC(=O)Nc1ccc(-n2nc(C(F)(F)F)cc2-c2ccc3c(ccc4ccccc43)c2)cc1 [OSU03012] (first compound 2 µM, partner dose 5 µM)",53.3%
14,"C[As](C)SC[C@H](NC(=O)CC[C@H](N)C(=O)O)C(=O)NCC(=O)O [Darinaparsin] + CN(NC(=O)CC(=O)NN(C)C(=S)c1ccccc1)C(=S)c1ccccc1 [STA4783] (first compound 2 µM, partner dose 0.03 µM)",61.1%
15,"N.N.[Cl][Pt][Cl] [cisplatin] + CCN(CC)CCCCNc1ncc2cc(-c3cc(OC)cc(OC)c3)c(NC(=O)NC(C)(C)C)nc2n1 [PD173074] (first compound 8 µM, partner dose 0.5 µM)",73.2%
16,"C[As](C)SC[C@H](NC(=O)CC[C@H](N)C(=O)O)C(=O)NCC(=O)O [Darinaparsin] + Cc1cc([N+](=O)[O-])ccc1NS(=O)(=O)c1cc(Cl)ccc1Cl [FH535] (first compound 2 µM, partner dose 5 µM)",73.6%
17,"C[As](C)SC[C@H](NC(=O)CC[C@H](N)C(=O)O)C(=O)NCC(=O)O [Darinaparsin] + Cn1cc(/C=C2\C(=O)Nc3cccnc32)c2ccccc21 [GW441756] (first compound 2 µM, partner dose 2 µM)",104%
18,"C[As](C)SC[C@H](NC(=O)CC[C@H](N)C(=O)O)C(=O)NCC(=O)O [Darinaparsin] + Cn1c(Nc2ccc(C(F)(F)F)cc2)nc2cc(Oc3ccnc(-c4ncc(C(F)(F)F)[nH]4)c3)ccc21 [CHIR265] (first compound 2 µM, partner dose 0.4 µM)",61.1%
19,"Cn1cc(C2=C(c3cn(C4CCN(Cc5ccccn5)CC4)c4ccccc34)C(=O)NC2=O)c2ccccc21 [Enzastaurin] + COc1ccc(-c2ccc3c(N4CCOCC4)nc(N4C[C@@H](C)O[C@@H](C)C4)nc3n2)cc1CO [KU0063794] (first compound 4 µM, partner dose 0.1 µM)",87%
